# Results as given in the supplement of paper PMC9174493.
# Where a name gives a salt, the structure may show the parent alone. This is one part of the list. Single values of this set are uncertain. Values with irradiation are relative to irradiated vehicle.
# Tested on: A549-Dual
# Test: NF-kB reporter (SEAP) activity, viability-corrected, relative to vehicle (fold change vs vehicle); higher = more activation of STING-IRF / NF-kB immune response reporter
# Settings: 10 µM; irradiation: none
# 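Further: viability correction based on the alamar blue assay, with concentrations leaving 10% survival or less dropped.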
row,Structure (SMILES),NF-kB reporter
1,CCC(C)CCCCC(=O)NC(CCN)C(=O)NC(C(=O)NC(CCN)C(=O)NC1CCNC(=O)C(C(C)O)NC(=O)C(CCN)NC(=O)C(CCN)NC(=O)C(CC(C)C)NC(=O)C(Cc2ccccc2)NC(=O)C(CCN)NC1=O)C(C)O.O=S(=O)(O)O (configuration not stated) [Polymyxin B sulphate],0.955
2,CC(C)C(NC(=O)C(CC(=O)O)NC(=O)C(CCCCN)NC(=O)C(N)CCCNC(=N)N)C(=O)NC(Cc1ccc(O)cc1)C(=O)O (configuration not stated) [Thymopentin],0.789
3,C[N+](C)(CCOc1ccccc1)Cc1ccccc1.O=C([O-])c1cc2ccccc2cc1O [Bephenium Hydroxynaphthoate],0.934
4,COC1CC2CCC(C)C(O)(O2)C(=O)C(=O)N2CCCCC2C(=O)OC(C(C)CC2CCC(n3cnnn3)C(OC)C2)CC(=O)C(C)/C=C(\C)C(O)C(OC)C(=O)C(C)CC(C)/C=C/C=C/C=C/1C (configuration not stated) [Zotarolimus(ABT-578)],1.48
5,COCCCN1CCC(NC(=O)c2cc(Cl)c(N)c3c2OCC3)CC1 [Prucalopride],1
6,CSc1nc2cc(Oc3cccc(Cl)c3Cl)c(Cl)cc2[nH]1 [Triclabendazole],0.79
7,Cc1cc(N2CCN(C3CNC(C(=O)N4CCSC4)C3)CC2)n(-c2ccccc2)n1 (configuration not stated) [Teneligliptin hydrobromide],0.91
